The source gives no read counts; variants with many changes may rest on few reads.
B1: LINE1-mini (parent)
chain: GGCAGAGCUCAACACAGCGUGGCAAAGUGGCUGUGGCUAGACUGCC

Variants of: B1
Assay: self-cleavage, relative activity (ratio to wild type); higher = more cleavage; in vitro, sequencing; the parent is a self-cleaving ribozyme

| Variant | self-cleavage |
| --- | --- |
| C3A G5U G27U | 0.11 |
| C3A C42G C45U | 0.08 |
| C3A G5A G7U A14G G30U G40C | 0.24 |
| C3A G17C U43C | 0.02 |
| C3A C45A C46U | 0.12 |
| C3A C10U C13G A26C C37G | 0.19 |
| C3A C8A U28A | 0.31 |
| C3A C37U A39G | 0.03 |
| C3A C10U G21U G44C | 0.06 |
| C3A G5U G36U C42U | 0.71 |
| C3A C13G A14U C23A A24U | 0.13 |
| C3A C10U G17U G21C G33C | 0.05 |
| C3A C10G C15U A39G A41C | 0.03 |
| C3A A25U C31U A41G | 0.05 |
| C3A C13A G19C A25C G30U | 0.07 |
| C3A G5A C8U G30A | 0.26 |
| C3A A24G U28C A39G G40A | 0.02 |
| C3A C8A A16G | 0.15 |
| C3A A24C A39U | 0.13 |
| C3A A24U G27A U28A | 0.39 |
| C3A A16C G27U C37U G40U | 0.12 |
| C3A C15A A24G G35U | 0.29 |
| C3A G17C A26G U34G G40C | 0.01 |
| C3A A24G U32C | 0.2 |

| Variant | self-cleavage |
| --- | --- |
| C3A A14U G35U A41U | 0.04 |
| C3A G7A C15G C37G C42U | 0.11 |
| C3A C8A U43A | 0.79 |
| C3A A16G G30A U32C | 0.16 |
| C3A G7U G17C U34A | 0.06 |
| C3A C45U C46A | 0.44 |
| C3A C18U U20A A39U | 0.08 |
| C3A C37G A39U | 0.38 |
| C3A C8U U38C | 0.51 |
| C3A G5C C8A G27U U34C | 0.24 |
| C3A C10A C18U A26C G40C | 0.01 |
| C3A C15A C31A G36A U38C | 0.01 |
| C3A G17C A41C | 0.08 |
| C3A A25G C45A | 0.58 |
| C3A C8A A16G U28C C42U U43G | 0.17 |
| C3A A16U G29A | 0.22 |
| C3A C8U A14C G21A A25C U32A C37G | 0.04 |
| C3A G17C U20C G29C U32A | 0.08 |
| C3A C15U U28A U43A | 0.01 |
| C3A C8U G22C C42G G44A C46A | 0.18 |
| C3A C18A C37U | 0.07 |
| C3A C31G G33A U34G | 0.04 |
| C3A G7C C31A G35C C46U | 0.1 |
| C3A A24U C31U G36C | 0.02 |

| Variant | self-cleavage |
| --- | --- |
| C3A C15A G17A | 0.24 |
| C3A C15U A16C U20G U38G | 0.05 |
| C3A C13U G29U | 0.17 |
| C3A C23U A26G | 0.4 |
| C3A C8A C31U G35C | 0.54 |
| C3A G5U C8G C10G | 0.05 |
| C3A C13A A14G G19U C46A | 0.24 |
| C3A C23U A25C U28C G33U | 0.24 |
| C3A G7A G36C | 0.36 |
| C3A C37U G40C | 0.14 |
| C3A C18A A26U G27C C31A | 0.08 |
| C3A G17U A25C | 0.24 |
| C3A C8A C13U C15A A24G | 0.27 |
| C3A A25U G30A C46U | 0.24 |
| C3A C10A G29C | 0.02 |
| C3A C10U G17U G22U U32G | 0.07 |
| C3A A25U G33A C37G | 0.15 |
| C3A C18G G40U G44C | 0.04 |
| C3A C10A U28A A39U | 0.02 |
| C3A C10G C31A U38G A39U | 0.02 |
| C3A G5U G21U G35U | 0.45 |
| C3A A26C U28G | 0.16 |
| C3A C31A U34C | 0.05 |
| C3A A16G G30C G35A A39C | 0.08 |

| Variant | self-cleavage |
| --- | --- |
| C3A C23A G30C | 0.31 |
| C3A C8U A16C G22A C31U | 0.1 |
| C3A C23G G30U G33C | 0.07 |
| C3A C8G C13A | 0.3 |
| C3A C13U G22C G44U | 0.08 |
| C3A A25C A26U G30C | 0.21 |
| C3A C13U A14C G17U | 0.08 |
| C3A G7A G19U G27C G33A | 0.06 |
| C3A C15G C18A A39U | 0.07 |
| C3A A16U G19C G21A | 0.7 |
| C3A C8U A14C A16C C46U | 0.19 |
| C3A C42G G44U | 0.03 |
| C3A C8G U20C U28A | 0.02 |
| C3A C23G G40C U43A | 0.15 |
| C3A C23G U43C | 0.25 |
| C3A G5A A11U C15A G22A A25U C31U | 0.01 |
| C3A G5U G7U C8U G35A | 2.67 |
| C3A G5U C8U | 0.14 |
| C3A G7C G19A C23A | 0.02 |
| C3A G5A C10U G27A G29C C42A | 0.01 |
| C3A C15G U20A A26C G29U | 0.02 |
| C3A C13A U32G | 0.13 |
| C3A C15U C23U A24C G27C | 0.05 |
| C3A G5C C10A U38A U43C | 0.03 |

| Variant | self-cleavage |
| --- | --- |
| C3A C13U A16U G19A C31A | 0.19 |
| C3A A16U G22A U28C | 0.06 |
| C3A G5A G21U | 0.42 |
| C3A C31A G35A | 0.04 |
| C3A C13G G35A | 0.63 |
| C3A A41G C42A | 0.21 |
| C3A C8A C18A A41U | 0.7 |
| C3A A16U G29A U32C | 0.12 |
| C3A C13A G35A A39U | 0.09 |
| C3A C15U G33A G36A | 0.92 |
| C3A A24C A26U G27A | 0.25 |
| C3A G5C A12C G19U U20C G27A C42U G44U | 0.01 |
| C3A G5C G29U C42U | 0.31 |
| C3A C10U C13U C37U | 0.09 |
| C3A G5U C23U A26C G30U | 0.06 |
| C3A C10U G21U | 0.21 |
| C3A A24G C42U | 0.08 |
| C3A A24G G29C | 0.05 |
| C3A G7U C13G G35A G40C | 0.14 |
| C3A G5U G21U | 0.17 |
| C3A C8A C31G | 0.22 |
| C3A G7A U9C G30A | 0.06 |
| C3A A39U G40A | 0.07 |
| C3A G7A C8A A14C A16G | 0.2 |

| Variant | self-cleavage |
| --- | --- |
| C3A C10A G19U G35C C37U G40U | 0.02 |
| C3A C18G C46A | 0.2 |
| C3A C31A G35U G44C | 0.19 |
| C3A A16G A39U G40A | 0 |
| C3A C10A C23A | 0 |
| C3A G5A C15A U38G | 0.12 |
| C3A G5C U9G A16C | 0.09 |
| C3A C18U A41C U43C | 0.09 |
| C3A G5A G27A G30U C31U | 0.41 |
| C3A C37U C46U | 0.16 |
| C3A G7C C8G | 0.16 |
| C3A C10U A11U C18A G29C C37G U43A C46A | 0 |
| C3A C15A C37U | 0.59 |
| C3A C15U G29C | 1.24 |
| C3A G17C G21A | 0.22 |
| C3A C15U A16U U20C | 0.17 |
| C3A C23G A26C | 1.08 |
| C3A G17C U34A C37G C46A | 0.07 |
| C3A C10A C42G C46G | 0.01 |
| C3A C10U A26G G27U C31U U34A C37U | 0.01 |
| C3A C10A G17C A39U | 0.05 |
| C3A G17A C31G | 0.07 |
| C3A G17C C18A | 0.28 |
| C3A C10A G17A G44A | 0.07 |

| Variant | self-cleavage |
| --- | --- |
| C3A G17U C18A A25U | 0.17 |
| C3A C10A U34A U38C U43C | 0.04 |
| C3A A16U G33U C37A G40U C45U C46G | 0.09 |
| C3A C23U G30C G36U G44A | 0.11 |
| C3A C18G G44U | 1.54 |
| C3A G5A A25C C42U | 0.34 |
| C3A G7A A16C G30A G33A | 0.1 |
| C3A A25G C31A | 0.4 |
| C3A C18A G40C G44U | 0.04 |
| C3A C10A C18G G35U U38G | 0.1 |
| C3A C15G G19U G27C C31A | 0.01 |
| C3A C15A G22C G35A | 0.24 |
| C3A G7A C45G C46U | 0.22 |
| C3A G7U C8A U20A | 1.37 |
| C3A G17A U28G G33C | 0.02 |
| C3A C18U C23A | 0.17 |
| C3A G7A C15U | 0.24 |
| C3A A14U G21U A26G C45G | 0.32 |
| C3A C8G G19U U20A G35U | 0.05 |
| C3A C15G G22A G29U | 0.03 |
| C3A C10A C15U A26C A39U | 0.05 |
| C3A C13A G27C G30C G35A G36U | 0.17 |
| C3A G5A A16U U34A G35U U38A | 0.13 |

— the RNAGym collection of RNA variant scans (doi:10.7554/elife.90254)
